The target of assay [1] is T1, KIRREL1 ΔICD mutant (lacking the ICD, a.a. 521-757) (UniProt Q96J84).
T1 sequence: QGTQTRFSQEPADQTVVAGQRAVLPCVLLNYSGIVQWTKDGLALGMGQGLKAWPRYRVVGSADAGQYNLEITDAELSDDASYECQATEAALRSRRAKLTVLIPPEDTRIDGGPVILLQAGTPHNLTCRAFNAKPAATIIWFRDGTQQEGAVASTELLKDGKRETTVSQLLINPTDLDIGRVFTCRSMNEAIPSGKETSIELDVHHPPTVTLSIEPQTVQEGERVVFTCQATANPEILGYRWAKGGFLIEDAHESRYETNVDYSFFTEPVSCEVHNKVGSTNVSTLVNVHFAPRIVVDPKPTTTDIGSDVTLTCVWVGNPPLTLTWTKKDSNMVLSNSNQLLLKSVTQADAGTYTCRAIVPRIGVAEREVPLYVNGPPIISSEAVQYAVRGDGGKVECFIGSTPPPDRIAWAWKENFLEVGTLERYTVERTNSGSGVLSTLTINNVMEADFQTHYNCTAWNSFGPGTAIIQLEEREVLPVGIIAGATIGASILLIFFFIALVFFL
As to the kind of experiment: co-IP; HEK293T cells co-transfected; NP40 lysis buffer; cleared lysates incubated with anti-Flag tag or anti-Myc tag magnetic beads overnight at 4 °C; beads washed four times; immunoblot.

Assay [2] addresses T2, KIRREL1 ICD Δ1 mutant (a.a. 521-600 deleted) (UniProt Q96J84).
T2 sequence: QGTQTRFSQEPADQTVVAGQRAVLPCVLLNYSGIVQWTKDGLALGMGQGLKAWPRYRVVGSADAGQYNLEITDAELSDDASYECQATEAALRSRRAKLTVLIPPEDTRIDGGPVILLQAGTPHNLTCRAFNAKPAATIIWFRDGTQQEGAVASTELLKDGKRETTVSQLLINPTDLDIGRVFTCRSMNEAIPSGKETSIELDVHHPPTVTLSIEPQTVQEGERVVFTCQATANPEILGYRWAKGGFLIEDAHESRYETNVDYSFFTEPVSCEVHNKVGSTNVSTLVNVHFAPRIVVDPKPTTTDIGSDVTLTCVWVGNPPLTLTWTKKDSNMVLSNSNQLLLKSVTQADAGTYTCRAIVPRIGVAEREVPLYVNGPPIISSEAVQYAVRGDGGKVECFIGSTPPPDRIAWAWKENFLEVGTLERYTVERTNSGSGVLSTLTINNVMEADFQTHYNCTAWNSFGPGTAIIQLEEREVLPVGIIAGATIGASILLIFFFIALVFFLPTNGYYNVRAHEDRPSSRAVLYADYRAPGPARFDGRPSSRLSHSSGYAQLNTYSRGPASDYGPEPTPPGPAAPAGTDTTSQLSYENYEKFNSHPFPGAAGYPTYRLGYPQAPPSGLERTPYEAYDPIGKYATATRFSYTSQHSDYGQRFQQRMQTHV
The assay is described as above.

The target of assay [3] is T3, Myc-KIRREL1-HA (full-length KIRREL1) (UniProt Q96J84).
T3 sequence: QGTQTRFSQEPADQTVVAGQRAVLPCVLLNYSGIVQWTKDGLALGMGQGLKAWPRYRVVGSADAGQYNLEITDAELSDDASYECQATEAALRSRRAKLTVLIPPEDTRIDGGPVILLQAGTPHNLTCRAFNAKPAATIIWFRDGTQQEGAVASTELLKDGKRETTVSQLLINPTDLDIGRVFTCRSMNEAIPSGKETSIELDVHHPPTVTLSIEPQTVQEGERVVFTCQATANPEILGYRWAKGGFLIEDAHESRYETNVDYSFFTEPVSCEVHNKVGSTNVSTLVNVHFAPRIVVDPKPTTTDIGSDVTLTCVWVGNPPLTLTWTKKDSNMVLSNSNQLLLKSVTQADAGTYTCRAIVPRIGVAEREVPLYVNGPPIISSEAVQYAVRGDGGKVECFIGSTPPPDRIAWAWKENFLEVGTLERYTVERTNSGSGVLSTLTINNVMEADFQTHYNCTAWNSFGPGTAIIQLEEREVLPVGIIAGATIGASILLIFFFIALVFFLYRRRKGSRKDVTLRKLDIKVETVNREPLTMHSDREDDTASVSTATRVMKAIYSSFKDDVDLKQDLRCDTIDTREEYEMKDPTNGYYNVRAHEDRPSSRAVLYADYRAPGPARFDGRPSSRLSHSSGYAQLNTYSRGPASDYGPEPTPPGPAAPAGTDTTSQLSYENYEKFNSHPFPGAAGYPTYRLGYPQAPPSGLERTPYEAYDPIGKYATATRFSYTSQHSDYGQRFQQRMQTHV
The assay is described as above.

The target in assay [4] is T4, KIRREL1 ICD Δ3 mutant (a.a. 681-757 deleted) (UniProt Q96J84).
T4 sequence: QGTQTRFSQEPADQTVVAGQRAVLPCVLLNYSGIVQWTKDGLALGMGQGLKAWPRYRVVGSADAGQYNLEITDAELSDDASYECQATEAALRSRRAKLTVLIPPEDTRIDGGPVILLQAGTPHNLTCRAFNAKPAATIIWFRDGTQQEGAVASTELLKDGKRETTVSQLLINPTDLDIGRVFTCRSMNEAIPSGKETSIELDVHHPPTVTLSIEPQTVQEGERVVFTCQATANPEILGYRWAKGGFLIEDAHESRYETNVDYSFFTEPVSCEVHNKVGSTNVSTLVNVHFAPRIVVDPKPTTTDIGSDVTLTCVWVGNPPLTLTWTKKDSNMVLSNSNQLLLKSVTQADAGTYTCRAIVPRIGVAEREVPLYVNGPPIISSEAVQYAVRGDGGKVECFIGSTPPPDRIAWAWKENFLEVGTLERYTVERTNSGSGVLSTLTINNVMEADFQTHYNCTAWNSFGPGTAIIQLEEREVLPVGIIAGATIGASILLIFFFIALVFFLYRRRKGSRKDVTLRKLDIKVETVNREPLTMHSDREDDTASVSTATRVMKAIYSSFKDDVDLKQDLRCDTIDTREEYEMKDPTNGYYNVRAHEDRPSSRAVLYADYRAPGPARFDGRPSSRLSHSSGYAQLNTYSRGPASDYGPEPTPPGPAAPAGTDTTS
The description is as above.

Assay [5] has as its target T5, KIRREL1 ICD Δ2 mutant (a.a. 601-680 deleted) (UniProt Q96J84).
T5 sequence: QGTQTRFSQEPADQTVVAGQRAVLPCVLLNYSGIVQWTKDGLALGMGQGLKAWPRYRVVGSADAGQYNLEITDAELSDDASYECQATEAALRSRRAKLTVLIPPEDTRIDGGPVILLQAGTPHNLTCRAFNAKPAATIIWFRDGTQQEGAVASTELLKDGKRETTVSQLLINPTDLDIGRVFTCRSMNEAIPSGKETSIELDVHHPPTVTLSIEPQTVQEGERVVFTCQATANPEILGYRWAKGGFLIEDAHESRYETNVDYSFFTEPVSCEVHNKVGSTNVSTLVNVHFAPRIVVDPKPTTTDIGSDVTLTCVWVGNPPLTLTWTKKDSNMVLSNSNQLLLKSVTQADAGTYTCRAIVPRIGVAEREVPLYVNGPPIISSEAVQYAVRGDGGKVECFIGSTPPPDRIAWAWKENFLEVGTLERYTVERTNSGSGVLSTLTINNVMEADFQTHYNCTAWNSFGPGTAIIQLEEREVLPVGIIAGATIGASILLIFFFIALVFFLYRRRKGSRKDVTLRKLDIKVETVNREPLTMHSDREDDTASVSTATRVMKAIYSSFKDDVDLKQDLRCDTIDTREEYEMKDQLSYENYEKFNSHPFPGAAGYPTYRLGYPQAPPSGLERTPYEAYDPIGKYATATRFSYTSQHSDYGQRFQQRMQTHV
Described as above.

Assay [6] concerns the target T6, His-SUMO-tagged C-terminal fragment of the KIRREL1 ICD (ICD77 C-ter, a.a. 681-757) (UniProt Q96J84).
T6 sequence: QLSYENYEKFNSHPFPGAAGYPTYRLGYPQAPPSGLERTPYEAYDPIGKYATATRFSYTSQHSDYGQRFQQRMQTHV
As to the kind of experiment: pull-down; Ni-NTA pull-down: purified His-SUMO-tagged KIRREL1 ICD fragments bound to Ni-NTA resin, incubated with HEK293T cell lysates expressing MST1 or SAV1 in NP40 lysis buffer overnight at 4 °C; washed four times; western blot; only the target purified.

The target in assay [7] is T7, His-SUMO-tagged N-terminal fragment of the KIRREL1 ICD (ICD80 N-ter, a.a. 521-600) (UniProt Q96J84).
T7 sequence: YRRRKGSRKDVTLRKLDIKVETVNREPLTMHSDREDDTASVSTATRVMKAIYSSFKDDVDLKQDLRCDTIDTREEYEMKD
Described as above.

For assay [8], the target named is T6, His-SUMO-tagged C-terminal fragment of the KIRREL1 ICD (ICD77 C-ter, a.a. 681-757). The assay can be described thus: pull-down; Ni-NTA pull-down: purified His-SUMO-tagged KIRREL1 ICD fragments bound to Ni-NTA resin, incubated with purified SAV1 (Origene) in NP40 lysis buffer for 4 h at 4 °C; washed four times; western blot; both purified. On the technique in general: A western blot detects proteins with antibodies after separation by electrophoresis.

Assay [9] concerns the target T7, His-SUMO-tagged N-terminal fragment of the KIRREL1 ICD (ICD80 N-ter, a.a. 521-600). The description is as above.
Assay [10] deals with T8, Myc-KIRREL1-HA (full-length KIRREL1), Q96J84.
T8 chain: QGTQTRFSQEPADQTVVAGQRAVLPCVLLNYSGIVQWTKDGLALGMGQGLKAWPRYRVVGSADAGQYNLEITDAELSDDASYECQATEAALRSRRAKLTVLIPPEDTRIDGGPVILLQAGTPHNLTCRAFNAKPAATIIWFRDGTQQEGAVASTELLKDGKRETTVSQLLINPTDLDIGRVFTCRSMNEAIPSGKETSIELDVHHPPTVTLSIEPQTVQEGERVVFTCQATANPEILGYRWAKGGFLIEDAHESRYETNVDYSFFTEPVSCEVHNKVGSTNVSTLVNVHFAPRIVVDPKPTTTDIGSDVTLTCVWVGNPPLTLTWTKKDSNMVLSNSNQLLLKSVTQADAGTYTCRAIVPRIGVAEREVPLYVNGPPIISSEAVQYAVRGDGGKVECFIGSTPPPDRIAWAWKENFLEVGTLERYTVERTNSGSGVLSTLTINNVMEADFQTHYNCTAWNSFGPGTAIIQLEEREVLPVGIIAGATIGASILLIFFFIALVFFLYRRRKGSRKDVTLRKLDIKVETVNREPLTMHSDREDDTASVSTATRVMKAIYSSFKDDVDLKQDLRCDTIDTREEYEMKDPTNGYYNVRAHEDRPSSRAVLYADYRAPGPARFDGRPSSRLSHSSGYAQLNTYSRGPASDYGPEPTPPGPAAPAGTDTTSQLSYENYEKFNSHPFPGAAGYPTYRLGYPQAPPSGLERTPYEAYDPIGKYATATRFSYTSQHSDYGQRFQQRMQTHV
As to the kind of experiment: co-IP; HEK293T cells co-transfected; NP40 lysis buffer; cleared lysates incubated with anti-Flag tag or anti-Myc tag magnetic beads overnight at 4 °C; beads washed four times; immunoblot. The conditions noted are these: remark: other sources report otherwise.

Here are results for three molecules from publication PMC8854406.

Results are given in words; binding and its absence hold for the method and conditions named. For some of these results: In cells and extracts the contact can be indirect. Some entries that bind do so weakly or less than the wild type. Tags and fused reporters may be left off the sequences shown.

B1: Flag-tagged SAV1 (full length) (protein, UniProt Q9H4B6 1-383)
chain: MLSRKKTKNEVSKPAEVQGKYVKKETSPLLRNLMPSFIRHGPTIPRRTDICLPDSSPNAFSTSGDVVSRNQSFLRTPIQRTPHEIMRRESNRLSAPSYLARSLADVPREYGSSQSFVTEVSFAVENGDSGSRYYYSDNFFDGQRKRPLGDRAHEDYRYYEYNHDLFQRMPQNQGRHASGIGRVAATSLGNLTNHGSEDLPLPPGWSVDWTMRGRKYYIDHNTNTTHWSHPLEREGLPPGWERVESSEFGTYYVDHTNKKAQYRHPCAPSVPRYDQPPPVTYQPQQTERNQSLLVPANPYHTAEIPDWLQVYARAPVKYDHILKWELFQLADLDTYQGMLKLLFMKELEQIVKMYEAYRQALLTELENRKQRQQWYAQQHGKNF
Take B1: the binding entry in assay [1] is on record as “no binding”; in assay [2] it was “binds”; in [3] it was “binds”; in assay [4], “no binding”; in assay [5], “binds”; in assay [6] it was “binds”. For the same molecule, the binding result in [7] is reported as “no binding”.

B2: purified Flag-SAV1 (Origene) (protein, UniProt Q9H4B6 1-383)
chain: MLSRKKTKNEVSKPAEVQGKYVKKETSPLLRNLMPSFIRHGPTIPRRTDICLPDSSPNAFSTSGDVVSRNQSFLRTPIQRTPHEIMRRESNRLSAPSYLARSLADVPREYGSSQSFVTEVSFAVENGDSGSRYYYSDNFFDGQRKRPLGDRAHEDYRYYEYNHDLFQRMPQNQGRHASGIGRVAATSLGNLTNHGSEDLPLPPGWSVDWTMRGRKYYIDHNTNTTHWSHPLEREGLPPGWERVESSEFGTYYVDHTNKKAQYRHPCAPSVPRYDQPPPVTYQPQQTERNQSLLVPANPYHTAEIPDWLQVYARAPVKYDHILKWELFQLADLDTYQGMLKLLFMKELEQIVKMYEAYRQALLTELENRKQRQQWYAQQHGKNF
Turning to B2, the binding entry in assay [8] is “binds”; in assay [9], “no binding”.

B3: Flag-tagged MST1, Q13043 1-487 (enzyme)
chain: METVQLRNPPRRQLKKLDEDSLTKQPEEVFDVLEKLGEGSYGSVYKAIHKETGQIVAIKQVPVESDLQEIIKEISIMQQCDSPHVVKYYGSYFKNTDLWIVMEYCGAGSVSDIIRLRNKTLTEDEIATILQSTLKGLEYLHFMRKIHRDIKAGNILLNTEGHAKLADFGVAGQLTDTMAKRNTVIGTPFWMAPEVIQEIGYNCVADIWSLGITAIEMAEGKPPYADIHPMRAIFMIPTNPPPTFRKPELWSDNFTDFVKQCLVKSPEQRATATQLLQHPFVRSAKGVSILRDLINEAMDVKLKRQESQQREVDQDDEENSEEDEMDSGTMVRAVGDEMGTVRVASTMTDGANTMIEHDDTLPSQLGTMVINAEDEEEEGTMKRRDETMQPAKPSFLEYFEQKEKENQINSFGKSVPGPLKNSSDWKIPQDGDYEFLKSWTVEDLQKRLLALDPMMEQEIEEIRQKYQSKRQPILDAIEAKKRRQQNF
Consider B3, for which the binding result in assay [10] is given as “no binding”.
